The source of these data is paper PMC4336329 (PLoS ONE, 2015).

Screen size: about 310,000 compounds; about 14,000 (4.5%) showed an effect of 50% or more. Effects have a minus sign here. The list shows a part of the results.
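Note: peak tail current of the secondary pulse compared with the same well before compound.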

Chain of human ether-à-go-go-related gene (hERG) potassium channel (Q12809 whole entry, looked up): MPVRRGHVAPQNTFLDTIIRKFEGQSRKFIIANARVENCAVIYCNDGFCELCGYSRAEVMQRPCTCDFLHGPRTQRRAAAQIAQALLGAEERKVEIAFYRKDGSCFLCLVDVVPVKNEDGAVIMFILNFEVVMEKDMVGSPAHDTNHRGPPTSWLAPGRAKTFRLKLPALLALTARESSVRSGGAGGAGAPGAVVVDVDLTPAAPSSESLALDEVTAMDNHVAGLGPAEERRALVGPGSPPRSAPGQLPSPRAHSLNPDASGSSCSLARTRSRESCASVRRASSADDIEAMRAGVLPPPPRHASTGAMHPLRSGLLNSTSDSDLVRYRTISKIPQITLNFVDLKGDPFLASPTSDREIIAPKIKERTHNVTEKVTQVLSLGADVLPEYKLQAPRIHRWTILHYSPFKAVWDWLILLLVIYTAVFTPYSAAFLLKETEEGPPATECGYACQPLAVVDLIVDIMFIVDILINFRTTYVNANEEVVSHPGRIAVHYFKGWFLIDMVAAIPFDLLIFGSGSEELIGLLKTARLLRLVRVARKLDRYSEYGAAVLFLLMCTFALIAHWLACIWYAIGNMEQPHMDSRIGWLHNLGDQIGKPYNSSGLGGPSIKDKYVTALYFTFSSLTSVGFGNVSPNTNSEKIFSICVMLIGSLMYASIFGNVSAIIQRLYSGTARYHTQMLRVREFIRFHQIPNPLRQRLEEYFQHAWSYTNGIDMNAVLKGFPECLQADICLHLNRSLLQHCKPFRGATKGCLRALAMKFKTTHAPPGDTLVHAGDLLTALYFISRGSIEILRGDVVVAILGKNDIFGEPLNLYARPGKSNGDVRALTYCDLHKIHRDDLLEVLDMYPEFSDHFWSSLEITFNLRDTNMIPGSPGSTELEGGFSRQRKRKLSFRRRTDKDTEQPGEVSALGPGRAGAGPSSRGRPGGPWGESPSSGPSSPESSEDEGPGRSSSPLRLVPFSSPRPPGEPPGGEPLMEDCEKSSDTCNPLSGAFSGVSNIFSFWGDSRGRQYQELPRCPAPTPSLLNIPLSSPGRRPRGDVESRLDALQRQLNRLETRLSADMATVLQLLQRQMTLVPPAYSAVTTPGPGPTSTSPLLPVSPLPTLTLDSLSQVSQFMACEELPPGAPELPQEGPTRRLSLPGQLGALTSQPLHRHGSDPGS

This test concerns the target human ether-à-go-go-related gene (hERG) potassium channel (human, UniProt Q12809). Nature of the test: primary screen, population patch clamp on CHO cells stably expressing hERG.
For `COc1nc2c(s1)C(=O)NCCC2`, the “hERG current change (%, negative = inhibition) at 10uM” value is -1.58%.

With `Cc1ccccc1C(=O)c1cccn1CC(=O)NCCCN1CCc2ccccc2C1`, the “hERG current change (%, negative = inhibition) at 10uM” value is recorded as -78.6%.

For the compound `Cc1c(C(=O)N2CCOCC2)c(S(=O)(=O)Nc2ccc(Br)cc2F)c(C)n1C`, the “hERG current change (%, negative = inhibition) at 10uM” value was 14.1%.

On to `Cc1cccc(-n2c(N)cc(=O)[nH]c2=S)c1C`, for which the “hERG current change (%, negative = inhibition) at 10uM” value was -0.207%.

`Cc1ccc(NC(=O)Nc2ncnc3nc[nH]c23)cc1`: the “hERG current change (%, negative = inhibition) at 10uM” value worked out at 6.43%.

`COc1ccc(CCNC(=O)C(=O)NCC2CCNCC2)cc1OC`: the “hERG current change (%, negative = inhibition) at 10uM” value is 14.3%.

As for `CCC1(CC)NC(=O)N(CC(=O)OCC(=O)Nc2sccc2C#N)C1=O`, the “hERG current change (%, negative = inhibition) at 10uM” value worked out at 16.7%.

Turning to `O=C(COc1ccc(S(=O)(=O)Nc2ccccc2)cc1)NCc1ccncc1`, the “hERG current change (%, negative = inhibition) at 10uM” value worked out at 7%.

In the case of `Cc1[nH]n(C(N)=S)c(=O)c1N=Nc1ccc(Cl)cc1Cl`, the “hERG current change (%, negative = inhibition) at 10uM” value is -19.5%.

With `COC(=O)C1=C(c2ccc(-c3ccccc3)c(F)c2)C[C@@H]2CC[C@H]1N2C(=O)NCc1cc(C)oc1C(F)(F)F`, the “hERG current change (%, negative = inhibition) at 10uM” value is reported as -1.04%.

Consider `O=[N+]([O-])c1cccc(/C=N/Nc2nc(NCc3ccccc3)nc(N3CCOCC3)n2)c1`, for which the “hERG current change (%, negative = inhibition) at 10uM” value was 12%.

For `C=CCNc1nc(-c2cccs2)c(CC(=O)O)s1`, the “hERG current change (%, negative = inhibition) at 10uM” value was -2.08%.

Regarding `Cc1[nH]c(=O)[nH]c(=O)c1S(=O)(=O)N1CCN(c2cccc(Cl)c2)CC1`, the “hERG current change (%, negative = inhibition) at 10uM” value came to 2.58%.

Regarding `Cc1ccc(N2C(=O)C3C4C=CC(CNC(=S)Nc5ccc(Cl)cc5)(O4)C3C2=O)cc1` (stereo not shown), the “hERG current change (%, negative = inhibition) at 10uM” value is given as 4.42%.

Regarding `O=C(OCCN1C(=O)c2ccccc2C1=O)c1cc2ccccc2o1`, the “hERG current change (%, negative = inhibition) at 10uM” value was 1.62%.

On to `CC(=O)c1cccc(NC(=O)C(C)N(C)CC(=O)Nc2ccc(Cl)cc2)c1` (stereo not shown), for which the “hERG current change (%, negative = inhibition) at 10uM” value is -5.14%.

With `COc1cc(C2C(N3C(=O)c4ccccc4C3=O)C(=O)N2c2ccc(C)c(C)c2)cc(OC)c1OC` (stereo not shown), the “hERG current change (%, negative = inhibition) at 10uM” value is given as 22.7%.

Take `Cc1csc(=O)n1CC(=O)OCC(=O)c1ccc(Br)cc1`: the “hERG current change (%, negative = inhibition) at 10uM” value is recorded as -14%.

In the case of `O=P1(O)C=C(c2ccccc2)OC(c2ccccc2)=C1`, the “hERG current change (%, negative = inhibition) at 10uM” value stood at 23.9%.

For the compound `Cc1c(C(=O)N(C)C)sc(NC(=O)c2cc([N+](=O)[O-])cc([N+](=O)[O-])c2)c1C#N`, the “hERG current change (%, negative = inhibition) at 10uM” value is reported as 5.58%.

Take `Cn1cncc1C#Cc1c(C=O)[nH]c2ccccc12`: the “hERG current change (%, negative = inhibition) at 10uM” value is 6.07%.

Take `COc1ccc(C(=O)Nc2ccc(Br)cn2)cc1S(=O)(=O)N1CCOCC1`: the “hERG current change (%, negative = inhibition) at 10uM” value is reported as -57.9%.

`CCCn1c(NC(=O)c2ccc(F)cc2)nc2ccccc21`: the “hERG current change (%, negative = inhibition) at 10uM” value is given as 14.5%.

Turning to `CN=C(C)c1c(O)c2ccccc2oc1=O`, the “hERG current change (%, negative = inhibition) at 10uM” value is given as -16.9%.

Consider `Cc1nn(CCS(=O)(=O)c2ccc(Cl)cc2)c(C)c1Br`, for which the “hERG current change (%, negative = inhibition) at 10uM” value stood at 1.2%.

Turning to `CCn1c(C)c(C(=O)O)c2cc(OC)ccc21`, the “hERG current change (%, negative = inhibition) at 10uM” value is listed as 6.41%.

Take `O=C(Nc1cccnc1N1CCOCC1)c1cccs1`: the “hERG current change (%, negative = inhibition) at 10uM” value is recorded as -9.08%.

In the case of `COc1cc(NC(=O)c2cccc3c2C(=O)N(C2CCCCC2)C3)cc(OC)c1OC`, the “hERG current change (%, negative = inhibition) at 10uM” value is on record as 2.33%.

For `COc1ccc(NC2=NC(C)(CO)CS2)cc1` (stereo not shown), the “hERG current change (%, negative = inhibition) at 10uM” value came to 17.5%.

For `O=C(Oc1ccc2ccc(=O)oc2c1)c1ccccc1`, the “hERG current change (%, negative = inhibition) at 10uM” value amounted to 14.2%.

Take `CCn1c(SCC(=O)O)nnc1-c1ccccc1OC`: the “hERG current change (%, negative = inhibition) at 10uM” value is given as 19.2%.

Regarding `COc1cc(/C=N/NC(=O)c2cc(C3CC3)[nH]n2)cc(OC)c1OC`, the “hERG current change (%, negative = inhibition) at 10uM” value was 13.1%.

For the compound `COc1ccc(NC(=S)N(CCCN2CCC(C)CC2)Cc2cccs2)cc1Cl`, the “hERG current change (%, negative = inhibition) at 10uM” value was -73.1%.

With `O=C1CCN(Cc2ccccc2)CCN1[C@H](CSc1ccccc1)c1ccccc1`, the “hERG current change (%, negative = inhibition) at 10uM” value was -44.7%.

As for `Cn1c2ccccc2c(=O)c2ccc(C#Cc3ccc(N)cc3)cc21`, the “hERG current change (%, negative = inhibition) at 10uM” value stood at 18.1%.

With `Cc1ccccc1NC(=O)CSc1ccncc1`, the “hERG current change (%, negative = inhibition) at 10uM” value is reported as -1.94%.

Take `O=C(CCC(=O)N1CCOCC1)NCCc1ccc(F)cc1`: the “hERG current change (%, negative = inhibition) at 10uM” value is 6.27%.

With `COc1cccc(N2CC(C(=O)OC(C)C(=O)c3ccccc3)CC2=O)c1` (stereo not shown), the “hERG current change (%, negative = inhibition) at 10uM” value is given as -2.07%.

Turning to `O=C(NCC1CCCO1)NC1(C(F)(F)F)Oc2ccccc2O1` (stereo not shown), the “hERG current change (%, negative = inhibition) at 10uM” value is recorded as 1.63%.

With `COc1cccc(/C=C2\SC(=S)N(N3C(=O)CCCC3=O)C2=O)c1`, the “hERG current change (%, negative = inhibition) at 10uM” value came to 24.5%.

As for `COc1ccc(-c2nnc(SCC(=O)N3CCCC3)o2)c(OC)c1`, the “hERG current change (%, negative = inhibition) at 10uM” value stood at 7.35%.

In the case of `c1ccc(Nc2nc3ccccc3n3cnnc23)cc1`, the “hERG current change (%, negative = inhibition) at 10uM” value is -2.08%.

For `Cn1c(N2CCC(C(N)=O)CC2)nc2c1c(=O)n(Cc1ccc(Cl)cc1)c(=O)n2C`, the “hERG current change (%, negative = inhibition) at 10uM” value is on record as -58.5%.

Consider `O=S1(=O)CCOC[C@H](c2ccccc2)N1Cc1ccccc1F`, for which the “hERG current change (%, negative = inhibition) at 10uM” value is -4.34%.

For the compound `COc1cccc(/C=C/C(=O)OCC(=O)NCC2CCCO2)c1OC` (stereo not shown), the “hERG current change (%, negative = inhibition) at 10uM” value is -6.11%.

In the case of `CCCCc1ccc(-n2c(Cc3cccs3)n[nH]c2=S)cc1`, the “hERG current change (%, negative = inhibition) at 10uM” value was -56.3%.

Take `CCOc1ccc(NC(=O)CSc2nnc(C)n2CC)cc1`: the “hERG current change (%, negative = inhibition) at 10uM” value worked out at 13.7%.

Regarding `CCC(=O)N1CCc2cc(S(=O)(=O)NC(Cc3ccccc3)C(=O)Nc3nccs3)ccc21` (stereo not shown), the “hERG current change (%, negative = inhibition) at 10uM” value was determined as 4.77%.

For `COc1ccccc1NC(=O)CSc1n[nH]c(-c2ccccn2)n1`, the “hERG current change (%, negative = inhibition) at 10uM” value is on record as -1.44%.

`Cc1cccc(-c2nc3ccccc3c(=O)n2N)c1`: the “hERG current change (%, negative = inhibition) at 10uM” value is 21.8%.

Take `CC(C)OCCCNC(=O)C1CCC(=O)N1C1CCCC1` (stereo not shown): the “hERG current change (%, negative = inhibition) at 10uM” value is given as -0.203%.

As for `CCCCCc1nnc(NC(=O)C(=O)OCC)s1`, the “hERG current change (%, negative = inhibition) at 10uM” value is recorded as -5.92%.

With `Cc1cccc(NC(=O)CSc2n[nH]c(-c3ccncc3)n2)c1C`, the “hERG current change (%, negative = inhibition) at 10uM” value was 12.5%.

For the compound `O=C(NC(=S)Nc1ccc(NC(=O)c2cccs2)cc1)c1ccco1`, the “hERG current change (%, negative = inhibition) at 10uM” value amounted to 2.77%.

Consider `CC(=O)c1cn(CCOc2ccccc2C)c2ccccc12`, for which the “hERG current change (%, negative = inhibition) at 10uM” value is on record as 25.8%.

For `COc1cccc(C(=O)c2c(C)c(CCC#N)n3ccccc23)c1OC`, the “hERG current change (%, negative = inhibition) at 10uM” value came to 18.8%.

For `CC(C)CCOc1ccc(-c2c(=O)n(OCc3ccc([N+](=O)[O-])cc3)c3ccccc3[n+]2[O-])cc1`, the “hERG current change (%, negative = inhibition) at 10uM” value is listed as 32.5%.

For the compound `O=C(OCc1ccccc1)c1ccc2c(c1)-c1ccccc1C2=O`, the “hERG current change (%, negative = inhibition) at 10uM” value is recorded as -3.76%.
